From the RNAGym collection of RNA variant scans (doi:10.7554/elife.90254) come the findings set out here.

Read counts are not given, so values of variants with three or more changes are uncertain.

First the molecules themselves.
B1: LINE1-full (parent)
chain: UACGUAGGUGGUUUUCCCCUGAUAGUGCUAAGGGGGCCUGGAAGUUUGGACUGGGCAGAGCUCAACACAGCGUGGCAAAGUGGCUGUGGCUAGACUGCCUCUCUGGAUUCCUCGUCACUCAGCAGGGCAUCUCUGAGAGAAAUGCC

In the data set the parent is B1. Kind of data set: self-cleavage, relative activity (ratio to wild type); higher = more cleavage; in vitro, sequencing; the parent is a self-cleaving ribozyme.
For the variant G44A U73C A78G, the self-cleavage turned out to be 1.87.

With U87A G89C U115C, the self-cleavage was determined as 0.01.

On to U12C U20C A24G A42U U46G U132C, for which the self-cleavage turned out to be 0.92. With A43G A65G U96A A141G the figure was 0; with A24U G54U U96A U130A A140G, 0.02; with U26A U119G A140G, 0.86.

Turning to U26C U52A A78G, the self-cleavage amounted to 0.51. Then A2G U13A A64G, with 0.29; and U52C C66A A67G, with 0.13. U29C A141G U143C: the self-cleavage came out at 2.04. As for U26C U87A U119C, the self-cleavage came out at 0.11. A2G U81G U119C A142G: the self-cleavage amounted to 2.04. With U62C U85A U115C the figure was 0. As for U20C A78G A138G A141G, the self-cleavage turned out to be 1.58. Regarding A65G U73C G75A A79U A142C, the self-cleavage was 0.04. Consider U15G U96A U112C, for which the self-cleavage is 0.68. With A50G C103U U134C A138G the figure was 0.84. Turning to A2G U87A C131A, the self-cleavage was 0.

G32U U39C U47C U109A A140G: the self-cleavage is 0.34. Then A2G U20A U45C A136G U143C, with 1.36; and U20C U108C A124C, with 1.41; and U9C G35A U46C U81C A121G, with 2.3.

As for U12C C18A A69G A79U G105U, the self-cleavage came to 0.76. Then A6G U87A A94G, with 0; and G41U A67G U132C A136G, with 0.39. Then U39A A69G A124U, with 0.51; and A64G U108G A140G, with 0.26; and U81A U100C A142G, with 2.9. Then U73C A78G U85C, with 0; and U62A G97U U108C, with 0.02; and U13C U87C A121C, with 0.2. As for U13C U104C A121U, the self-cleavage turned out to be 0.

Take A67U U85A A117U: the self-cleavage turned out to be 0.02. With U45C A57G C95U C128U the figure was 0.11; with A6G A78G A79G A124G, 1.15; with G53A U96C U100C U109C A138G, 0.07.

As to U12C A94G A136U, the self-cleavage is 0.42. With U15C A79U G82A A94G C95A U102C C131U the figure was 0.12; with A2G U12C G36A U104A, 0.64. Then G4C U46G U47C, with 1.02; and U26A U81C U130A, with 0.51. Then U46A A79G G88A U109C A140G A141G, with 0.05.

As to G58U U100C U109C U130C, the self-cleavage was 0.05. U23C A65U A67U U102G: the self-cleavage is 0.15. Then U14C U109A U130C, with 1.47; and U13C U87A U130C, with 0.22; and A22G G41A A50U A57U, with 0.25. With G7A U15A U100C the figure was 0.61. G55U C120U A138G: the self-cleavage came to 1.43. Then U12C A64G G72A, with 0.42; and U13C U85A U96A U119C, with 0.25. Then A43G U45A U62A, with 0.06. Then U12C U23A A57G A67G A129G, with 0; and A22G U119C U132C, with 2.11. As for A2G U14C U108C, the self-cleavage is 0.88. Regarding G89A U91G A142G, the self-cleavage worked out at 0.04. Then A30U A64C A65G, with 0; and U1C U39C U115C, with 0.56; and U29C U115C A129G, with 1.36. With C76U U112A U134C the figure was 1.48. Consider G89A A117U A136G, for which the self-cleavage worked out at 0.01. Then U20A U39C A141C, with 0.54; and U14C A50G U108A, with 1.84.

As for G7A U104C A121U, the self-cleavage is 1.94. Then U115A A117G U143G, with 2.43. Then A42G U47C A57G, with 0.97; and U9A C19U A140G, with 1.02. Then U14C U96C U100A, with 0.17; and A77U A136U A142G, with 1.1; and U14C A59G C118G G125A A140G, with 0.13.

For A22G U130C A140G, the self-cleavage amounted to 1.41. Consider A2U U14C U46C, for which the self-cleavage worked out at 0. For the variant U13C U47C U109C A142G, the self-cleavage turned out to be 0.66.

With A22G U115A U134G, the self-cleavage came out at 1.29.

Turning to C17A U39C G106U, the self-cleavage amounted to 0.71. With A6U A57G U112C the figure was 0.35; with A31U A69G U109A A138G, 0.78; with G4A U62C A129G, 0. As for A2G A79G U91A, the self-cleavage was determined as 0.84. Then U1C A117G A138G, with 0.77; and U62A U132C U134C, with 0.11. Take U29A U47A A64G: the self-cleavage amounted to 0.29. For U9C G27A U45G A67G, the self-cleavage is 0.24. With G8U U45C U96A A142G, the self-cleavage was 0.09. Regarding U45A C56U A142G, the self-cleavage turned out to be 0.25. With C103A U119C A140G the figure was 1.36; with U45C U62C G86A, 0.08; with U13C U100C A141G, 1.22. With U9C U13C U115C A124G the figure was 0.84. As to U14C U20A U45C A77G, the self-cleavage stood at 2.54. Then U12A U29A A78C U104A, with 1.56. Then U14A C90U A138G, with 0.03; and G49A A65C U73A, with 0.03. In the case of A22U A64U A65G C113A, the self-cleavage is 0.09. Regarding U23A A64G A129G, the self-cleavage stood at 0.13.

For the variant A67G U130C A141G, the self-cleavage was 0.16. Consider U9A U12G G126C, for which the self-cleavage is 0.89.

In the case of U5A A92G C98A, the self-cleavage was determined as 0.26. With U1A G41U A43G A92G the figure was 0; with U13C U20A A136G, 0.67; with U29C A43U A78G, 1.78.

Turning to U9C A43U U47C A124G, the self-cleavage is 1.15. For U52C U73C A142G, the self-cleavage is 1.84.

In the case of U26C G33A A129C, the self-cleavage came out at 1.06. Then U15C U20C U39A U96C U115C, with 0.17. Then U12G U39C U81A A136U, with 1.76. For U39C A138U A141G, the self-cleavage was found to be 1.85. With A22G G60A A65G the figure was 0.04. Turning to U15C A59U A141G, the self-cleavage came to 1.03.

For the variant U100C C113U U119G, the self-cleavage was found to be 1.51. For U39C A92C A142G, the self-cleavage stood at 0.18. For U73A A107G C111U, the self-cleavage came to 1.3. With A2G C103U A124G A138U the figure was 2.3. For the variant U45C U81A A94C U119G, the self-cleavage was determined as 0.

G60A U112C U132A: the self-cleavage amounted to 0.02. Then U29C A92U A121G, with 1.15; and G49A U115C U130A, with 0.67. As to A30G U47C A79G, the self-cleavage came out at 0.71. Consider G72A A77U G93A U102C U132C, for which the self-cleavage stood at 0.02. For the variant U9C U20C U115C, the self-cleavage was determined as 2.96. With U47C G48A G86A G93A G126A U130A the figure was 0; with U26A A77G A79G, 1.16.

In the case of A42G U100A U132C A141G, the self-cleavage is 1.04.

Consider U14C U115A A138G, for which the self-cleavage was 1.79. Regarding U15A U73C A129U A142G, the self-cleavage was determined as 1.03. In the case of U9A C56U A140G, the self-cleavage came to 0.14.

U52G U62A U87A A142G: the self-cleavage came to 0.

In the case of U12G G53A U81C U112C, the self-cleavage came out at 1.01. With U87A U112C A117U the figure was 0.04. G35U A79G U96A: the self-cleavage turned out to be 0.06. With U13A G41A U85A the figure was 0; with U15C U85A U119C, 0.19. Then U1C U29C A79U A142G, with 1.26; and U20C U46C A138G, with 2.24; and U1A A30G U39A U52A A79U, with 1.37. With U12G A24G A77U G126A A142G the figure was 0.77; with U26C G35A A69U, 0.07; with A24G A92G A141G, 0.1. As to A6G C38A A67G, the self-cleavage came to 1.16. Then U26A A94U C131U, with 0.27. Regarding U20G U47C A67U U100C, the self-cleavage was determined as 0.32. With U29C U47C U62C G114A the figure was 0.1. Then C3U U47A U81C, with 1.19. For the variant U73C A94U U132C A138U, the self-cleavage stood at 0.44. As for U47C U115G A142G, the self-cleavage was determined as 1.31. Then A2G U47A U104C, with 0.66. Then C38U G40A A77U U85C A124G, with 0.07; and U9A U20C G54A A69U U96A, with 0.08. With U14C U39A G44A A69G G86U U130C the figure was 0.05; with U5C U15A G54C A64G, 0.65; with A67G U73A C113U A140G, 0.19. In the case of U5C A6G U12G U47C A64U U115C, the self-cleavage worked out at 2.76.

For the variant U26C U62A U134A, the self-cleavage came to 0.12. Regarding U9A G74A U112A, the self-cleavage stood at 1.34. Then U14C A79G A140G, with 1.22; and U15A U62C U81C C84U A129G, with 0; and U13C U45G G125A, with 1. With U14C G82U A141G the figure was 2.45; with U14C C38A A117U, 1.25; with U14C U47C A59G A142C, 0.26. Then A42G U87C U134C U143C, with 0; and U45G A121U U130C A142G, with 1.81. As for U12G U47A U73A A94G, the self-cleavage amounted to 0.13. On to U29C U96G A136G, for which the self-cleavage was 0. Then A22G U52C A77G G83A U134C, with 1.49; and U45C A78G A94U A138G, with 0.39. Turning to U73C U87A U104C C123U, the self-cleavage is 0.15.
